Assay results taken from PubChem BioAssay AID1345082 (National Center for Advancing Translational Sciences (NCATS), 2018).
Screen size: about 94,000 compounds; about 4,000 (4.3%) were called active. Inconclusive results, whose numbers are uncertain, are shown with a selection of clear calls. Calls follow the shape of the dose curve; as a rule, active = well fitted inhibition curve with a large enough effect; inconclusive = small, poorly fitted or top-dose-only effect; inactive = no such curve, though single readings can be large or run the other way. Potencies of inconclusive entries are doubtful fits and often do not repeat.

Experiment: Cytotoxic Profiling in NIH 3T3 Cell Line of Diverse Libraries Using Quantitative High-Throughput Screening; also: nearly all actives have a fitted effect of over 55% in size
Conditions: NIH 3T3 viability, CellTiter-Glo ATP luminescence, 48-72 h; activity change, negative = cytotoxicity: at 96.7 µM (top of the series) unless noted; series mostly up to 96.7 µM
Procedure, shortened: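 ATP-dependent luminescence (CellTiter-Glo) served as the viability signal for NIH 3T3 cells treated with compound for 48 or 72 hr at 37 °C.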
% is scaled to controls: 0 for no effect and ±100 for the full control effect; potency is read from the fitted curve at half-maximal effect; tags tell the direction and shape of the fitted curve.

SMILES | activity change, negative = cytotoxicity | Potency | outcome
CCN(C1CCOCC1)C1CN(C(=O)C2CC2)C1 | inactive: -3.57% | – | –
COc1ccc(NC(=O)c2nc3sccn3c2-c2ccc(C(F)(F)F)cc2)cc1 | – | inconclusive: 35.5 µM [inhibitor, partial curve, poor fit] | –
CC(C)C(=O)N1CCC2(CCC(=O)N(Cc3ccccc3)CC2)CC1 | – | inconclusive: 50.1 µM [inhibitor, partial curve, poor fit] | –
Cc1nnc([C@@H]2CC(F)(F)CN2C(=O)c2cccc3[nH]ccc23)o1 | inactive: -19.3% | – | –
Cc1nc(-c2cccc(Cl)c2)n(Cc2cccc(F)c2)c(=O)c1CCO | – | inconclusive: 44.7 µM [inhibitor, partial curve, poor fit] | –
O=C(CC[C@H]1NC(=O)c2ccccc2NC1=O)Nc1nnc(C2CC2)s1 | – | inconclusive: 35.5 µM [inhibitor, single point] | –
CC(C)c1nc(C2Cc3ccccc3N2C(=O)C2CC2)no1 (stereo not given) | inactive: -27.4% | – | –
CSCC(=O)N[C@H]1CCN2C(=O)c3cc(-c4ccccc4)ccc3NC(=O)[C@H]12 | – | inconclusive: 25.1 µM [inhibitor, full curve, poor fit] | –
Cc1ccc2nc(CO[C@H]3CN(Cc4ccc(C(F)(F)F)cc4)C[C@H]3F)[nH]c2c1 | – | inconclusive: 56.2 µM [inhibitor, partial curve, poor fit] | –
CC(C)C1CN(C(=O)c2n[nH]c3c2CCC3)CCC(=O)N1CC1CC1 (stereo not given) | inactive: -22.6% | – | –
CCc1cn[nH]c1C1CCCN(C(=O)c2oc3cc(C)ccc3c2C)C1 (stereo not given) | – | active: 44.7 µM | –
O=C(NCCN1CCOCC1)c1nc2sccn2c1-c1cccnc1 | inactive: -5.73% [at 138 µM] | – | –
COc1ccccc1CN1CCCn2nc(C)c(-c3ccccc3C(N)=O)c21 | – | inconclusive: 22.4 µM [inhibitor, full curve, poor fit] | –
Cn1c(-c2ccc(CN3CC[C@H]4CNC[C@H]43)o2)nc2ccccc21 | – | inconclusive: 79.4 µM [inhibitor, partial curve, poor fit] | –
COCCN1C(=O)c2ccccc2C(C(=O)NCc2cccc(F)c2)C12CCCC2 (stereo not given) | inactive: 0.299% | – | –
COc1ncccc1-c1cc(C(=O)NCc2c(C)cc(C)[nH]c2=O)c2c(c1)N(C(C)C)CCO2 | – | inconclusive: 50.1 µM [inhibitor, partial curve, poor fit] | –
CC(=O)Nc1cc(-c2ccccn2)nn1-c1ccccc1 | inactive: -0.352% [at 138 µM] | – | –
COc1cccc(-c2ccc(C(=O)N3CCC(C(=O)NCCCc4ccccc4)CC3)cc2)c1 | – | inconclusive: 50.1 µM [inhibitor, partial curve, poor fit] | –
O=C(NCC1CC1)C1CCCN(Cc2cccc(-c3ccc(F)cc3F)c2)C1 (stereo not given) | – | inconclusive: 44.7 µM [inhibitor, partial curve, poor fit] | –
O=C(c1cccs1)N1CC[C@H]2COC(=O)N2c2cc(F)ccc2C1 | inactive: -14.5% [at 174 µM] | – | –
COc1ncccc1CN1CCC2(CC1)Cc1ccccc1CNC2=O | inactive: -5.97% | – | –
O=C(c1ccc(C(F)(F)F)cc1)N1CCC2(C1)C(=O)N(Cc1ccccc1)c1ccccc12 (stereo not given) | – | active: 25.1 µM | –

SMILES | activity change, negative = cytotoxicity | Potency | outcome
CCn1ncc(N2CCCC(CC(=O)NCc3cc(F)cc(F)c3)C2)cc1=O (stereo not given) | – | inconclusive: 50.1 µM [inhibitor, partial curve, poor fit] | –
COc1ccc(NC(=O)[C@@H]2C[C@@H](c3cccc(C(F)(F)F)c3)N(Cc3cnn(C)c3)C2)cc1 | – | inconclusive: 44.7 µM [inhibitor, partial curve, poor fit] | –
Cc1cn2nc(C(=O)N3CCC(C(=O)NCc4cccnc4)CC3)cc2c(=O)[nH]1 | inactive: 3.94% | – | –
CCc1cc(=O)n(CC(=O)Nc2cccc(C#N)c2)c(-c2ccccc2)n1 | inactive: -0.102% | – | –
COc1ncccc1-c1cnc2[nH]cc(CC(N)=O)c2c1 | – | inconclusive: 79.4 µM [inhibitor, partial curve] | –
COc1ccccc1CN(Cc1ccccc1OC)C[C@@H]1C=C(C)[C@H](Cc2nc3c(C)cccc3[nH]2)C[C@H]1C(C)C | – | active: 31.6 µM | –
CN1CCN(c2ccc(-c3nccc4c(=O)cc(N(C)c5ccccc5)oc34)cn2)CC1 | – | inconclusive: 3.16 µM [inhibitor, full curve, poor fit] | –
COC(=O)N1CCC(N2C(=O)c3c(c(C)nn3-c3ccccc3)C2C)C1 (stereo not given) | – | inconclusive: 56.2 µM [inhibitor, partial curve, poor fit] | –
COCC(=O)N1CC(N2C(=O)c3c(c(C)nn3-c3ccccc3)C2C(C)C)C1 (stereo not given) | inactive: -25.7% | – | –
O=C(CC1CCCC1)N1CC2CC(C1)[C@H]1CCCC(=O)N1C2 (stereo not given in full) | inactive: -7.3% | – | –
COc1ccc(-c2noc(CC3CCN(C(=O)c4ccc(OC)nc4OC)CC3)n2)cc1 | – | inconclusive: 12.6 µM [inhibitor, partial curve, poor fit] | –
CC(=O)Nc1ccc(CN2CCOC[C@H]2c2ncc(-c3ccc(Cl)cc3)[nH]2)cc1 | – | inconclusive: 89.1 µM [inhibitor, partial curve, poor fit] | –
Cc1cccc(Cl)c1NC(=O)CN1C(=O)NC(c2ccc(Cl)cc2)C2=C1COC2=O (stereo not given) | – | inconclusive: 50.1 µM [inhibitor, partial curve, poor fit] | –
CC1(C(=O)NCc2ccncc2)CCCc2cnc(NCc3ccccc3)nc21 (stereo not given) | – | active: 25.1 µM | –
COc1ccccc1C(=O)N1CCc2nnc([C@@H]3C[C@@H](O)CN3C)n2CC1 | – | – | inactive
Cc1nc(NCCn2ncc3ccccc3c2=O)cc(C2CC(O)C2)n1 (stereo not given) | – | inconclusive: 28.2 µM [inhibitor, full curve] | –
COc1ccccc1-c1cc2c(nc1OC)nc(CC1CC1)n2C | – | inconclusive: 79.4 µM [inhibitor, partial curve] | –
O=C(O)CCC(=O)N1Cc2ccccc2CC2(CCCN2CC2CCNC2)C1 (stereo not given) | inactive: -7.13% | – | –
Cn1ncc2c(C(=O)N3CCC(c4ccccc4)CC3)cc(-c3ccccc3C(F)(F)F)nc21 | – | active: 28.2 µM | –
COc1ccc(-c2noc([C@@H]3CCCN3C(=O)c3cc(Cl)ccc3F)n2)cc1OC | – | inconclusive: 56.2 µM [inhibitor, partial curve, poor fit] | –
COc1ccc(S(=O)(=O)NC[C@@H]2C=C(C)[C@H](CC(=O)N(C)Cc3cccnc3)C[C@H]2C(C)C)cc1 | – | active: 10 µM | –
CC1CN(c2ccccc2C#N)C(=O)CN1C(=O)Cc1c[nH]c(=O)[nH]c1=O (stereo not given) | inactive: 4.98% | – | –

SMILES | activity change, negative = cytotoxicity | Potency | outcome
COc1ccccc1CN1Cc2cc(NC(=O)c3ccc(C#N)cc3)ccc2OC(C)C1=O (stereo not given) | – | inconclusive: 50.1 µM [inhibitor, partial curve, poor fit] | –
Cc1ccc(-n2nc(C)c([C@@H]3C=C[C@@H](NC(=O)NCc4ccccc4)C3)c2C)cc1Cl | – | inconclusive: 112 µM [inhibitor, single point] | –
CC(C)(C)NC(=O)C[C@@H]1CCNC[C@@H]1Cc1cc(COc2ccccc2)on1 | inactive: -17.4% [at 174 µM] | – | –
COc1ccc(N2Cc3c(NC4CCCCCC4)ncnc3N(C)CC2=O)cc1 | – | inconclusive: 44.7 µM [inhibitor, partial curve, poor fit] | –
CCOC(=O)c1ccc(NC(=O)C2CC(=O)N(c3n[nH]c4ccccc34)C2)cc1 (stereo not given) | – | inconclusive: 50.1 µM [inhibitor, partial curve, poor fit] | –
CC(C)(Oc1nn(Cc2cccc(Cl)c2)c2ccccc12)C(=O)NCC1CCOCC1 | – | inconclusive: 44.7 µM [inhibitor, partial curve, poor fit] | –
COc1ccc(Cl)cc1-c1ccc2c(c1)C(=O)N1CC[C@H](N)C[C@H]1C(=O)N2 | – | active: 31.6 µM | –
Cc1ccc(-n2c(C3CCN(C(=O)COc4ccc(F)cc4)CC3)n[nH]c2=O)cc1 | – | inconclusive: 1 µM [inhibitor, full curve, poor fit] | –
Cc1ccc(Cl)cc1NC(=O)c1cnc(-c2ccccc2)nc1-c1ccncc1 | – | inconclusive: 50.1 µM [inhibitor, partial curve, poor fit] | –
Cc1ccncc1C(=O)N1CCCC(c2nc(-c3cccnc3)no2)CCNC(=O)CC1 (stereo not given) | – | – | inactive
Cc1ccc(C(=O)N2CCc3nc(-c4ccccc4)nc(-c4ccc(Cl)cc4)c3C2)cc1 | – | inconclusive: 50.1 µM [inhibitor, partial curve, poor fit] | –
CC1CCCCN1c1ccc(C(N)=O)cc1NC(=O)c1cccc(-n2cnnc2)c1 (stereo not given) | – | inconclusive: 89.1 µM [inhibitor, single point] | –
Cc1ccc([C@@H]2CN(C(=O)c3c(-c4ccccc4)noc3C)C[C@H]2N(C)C)cc1 | – | inconclusive: 50.1 µM [inhibitor, partial curve, poor fit] | –
NC[C@H]1O[C@H](Cc2cc(-c3cccc(O)c3)on2)CC[C@@H]1O | – | – | inactive [at 174 µM]
COCCCNc1cc(-c2ccc(Cl)cc2)nc2c(C)noc12 | – | inconclusive: 56.2 µM [inhibitor, partial curve, poor fit] | –
COc1ccc(C(=O)N2CCCC(c3nn(-c4ccc(F)cc4)c(=O)[nH]3)C2)cc1 (stereo not given) | – | inconclusive: 70.8 µM [inhibitor, partial curve, poor fit] | –
CNC(=O)c1cc(C)nc2onc(C3CCCN3C(=O)c3ccccc3)c12 (stereo not given) | inactive: -13.9% | – | –
CCCn1c(C)cnc1C1CCN(S(=O)(=O)c2cnn(CC)c2)C1 (stereo not given) | inactive: -29.3% | – | –
COc1ccc(-c2cc(N3CCC(NC(=O)c4cc(F)ccc4Cl)C3)n[nH]2)cc1 (stereo not given) | – | inconclusive: 44.7 µM [inhibitor, partial curve, poor fit] | –
CN1C[C@H](NCC2CC2)CCC[C@@H](C(=O)N(C)Cc2cccnc2)CC1=O | – | – | inactive [at 138 µM]
COc1ccc(-c2ccnc(N[C@H]3CO[C@H]4[C@@H]3OC[C@@H]4NC(=O)c3ccc(C)cc3)n2)cc1 | – | inconclusive: 79.4 µM [inhibitor, partial curve, poor fit] | –
